# Measured values from PubChem BioAssay AID504832 (National Center for Advancing Translational Sciences (NCATS), 2011).
# The campaign covered roughly 310,000 compounds. About 18,000 (5.8%) were called active. Inconclusive means that the source gave no clear call. Such entries were picked first, then a sample of the others. Calls come from the whole dose curve; as a rule, active = well fitted inhibition curve with a large enough effect; inconclusive = small, poorly fitted or top-dose-only effect, or another doubt; inactive = no such curve, though single readings can be large or run the other way. Potencies of inconclusive entries are left out as doubtful fits.
# Assay: Primary qHTS for delayed death inhibitors of the malarial parasite plastid, 48 hour incubation
# Conditions: P. falciparum luciferase growth in erythrocytes; series mostly up to 28.7 µM; activity change, negative = inhibition: at the top concentration
# Summary of the method: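 Firefly luciferase activity from engineered P. falciparum reports growth; inhibitors lower the luminescent signal. Cultures contained 2% hematocrit erythrocytes at 0.1% final parasitemia.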
# % is set by controls: 0 for no effect and ±100 for the full control effect; potency is the fitted concentration of half-maximal effect; tags give direction and shape of the fitted curve.
Structure (SMILES),"activity change, negative = inhibition",Potency
Cc1ccc(NC(=O)C2CC(=O)Nc3nncn32)cc1 (stereo not given),inactive: -3.08%,–
COc1ccc(COC(=O)C2=C(C)NC(=O)NC2c2ccc(O)cc2)cc1 (stereo not given),inactive: 22.2%,–
COc1ccc(N2CCN(c3ncccc3C#N)CC2)cc1,inactive: 19.9%,–
COc1ccc(C#Cc2c(C=O)n(C)c3ccccc23)cc1,–,"inconclusive [inhibitor, single point]"
COc1ccc(C2=CC(c3c(C)nn(-c4ccccc4)c3Cl)n3nnnc3N2)cc1OC (stereo not given),–,active: 2.33 µM
O=C(OCC(=O)N(Cc1ccccc1)Cc1ccccc1)c1ccccc1NCCO,–,"inconclusive [inhibitor, single point]"
Cc1cc(OCC(O)CN2CCOCC2)cc(C)c1Cl (stereo not given),inactive: 4.43%,–
Clc1cccc(NCc2cn3cccnc3n2)c1,inactive: 0%,–
CCOc1ncccc1C(=O)Nc1ccc(Cl)cc1,inactive: 9.21%,–
CC(C)(C)c1csc(NC(=O)CCc2ccccc2)n1,inactive: -20.5%,–
COc1ccc(NC(=O)c2c(C)noc2-c2snnc2C)cc1,–,active: 13.1 µM
CC(C)C(=O)NC(c1cccc([N+](=O)[O-])c1)c1c(O)ccc2ccccc12 (stereo not given),–,active: 4.65 µM
N=c1n(CC(=O)c2ccc(Br)s2)c2ccccc2n1Cc1ccccc1,–,"inconclusive [inhibitor, partial curve, poor fit]"
COc1ccc(CCN2CC(C(=O)N(C)CC(=O)Nc3ccc(Cl)c(C(F)(F)F)c3)CC2=O)cc1OC (stereo not given),–,"inconclusive [inhibitor, single point]"
CCCn1cc(CN2CCC(n3nccc3NC(=O)c3ccccc3)CC2)c(C)n1,inactive: 2.08%,–
CN(CCc1ccccc1)Cc1c[nH]c2ccccc12,–,"inconclusive [inhibitor, single point]"
CC(=O)c1ccc(NC(=O)CCNS(=O)(=O)c2cccc3nonc23)cc1,inactive: -8.61%,–
COc1cc([C@@H]2CC=C(C(=O)O)[C@H](c3ccc(F)cc3)N2S(=O)(=O)c2ccc(C)cc2)cc(OC)c1OC,–,active: 3.29 µM
CCN(CC)CCOc1nnc(-c2ccc(OC)cc2)c2ccccc12,inactive: -2.7%,–
CC(C)(C)n1nnnc1C(c1cccc(C(F)(F)F)c1)N1CCC(O)CC1 (stereo not given),–,"inconclusive [inhibitor, single point]"
COc1ccc(/C=C2\SC(=S)N(CCC(=O)NCCCn3ccnc3)C2=O)cc1,–,"inconclusive [inhibitor, partial curve, poor fit]"
Cc1ccc(NCCNc2ccc(C)cc2)cc1,inactive: 43.7%,–
Cc1ccc(-n2[nH]c(C)c(C=NCc3ccncc3)c2=O)cc1,inactive: 0%,–
CCOc1cc(CNc2ccc(N3CCOCC3)cc2)cc(Br)c1OCC,–,"inconclusive [inhibitor, partial curve]"

Structure (SMILES),"activity change, negative = inhibition",Potency
Cc1ccc(N2C(=O)c3ccccc3C2C(=O)c2ccc(C)c(C)c2O)cc1 (stereo not given),–,"inconclusive [inhibitor, partial curve]"
COCCNC(=O)/C(C#N)=C/c1c(N2CCN(C)CC2)nc2ccccn2c1=O,inactive: 17.7%,–
CCCNS(=O)(=O)c1ccc(OCC(=O)NCc2ccco2)cc1,inactive: -3.82%,–
CC1=CC(C)C2(COC(c3ccc[n+](C)c3)OC2)C(C)C1 (stereo not given),–,"inconclusive [inhibitor, single point]"
CCOc1cccc(C(=O)Nc2ccccc2C(=O)N2CCOCC2)c1,–,"inconclusive [inhibitor, full curve, poor fit]"
O=C(COC(=O)CCc1ccccc1)Nc1cc(S(=O)(=O)N2CCOCC2)ccc1N1CCCC1,–,"inconclusive [inhibitor, single point]"
O=C1NC(=O)C(=Cc2ccc(N3CCOCC3)cc2)C(=O)N1,–,"inconclusive [inhibitor, single point]"
CCOc1ccc(C(=O)CN2C(=O)NC3(CCCCCC3)C2=O)cc1,–,"inconclusive [inhibitor, single point]"
COC(=O)C1=CN(Cc2ccc(OC)c(OC)c2)C=C(C(=O)OC)C1c1ccc(O)cc1,–,"inconclusive [inhibitor, partial curve, poor fit]"
O=C(OCc1nnc(-c2ccccc2)o1)c1ccco1,inactive: 1.13%,–
O=C(c1ccco1)N1CCN(c2ncnc3c2[nH]c2ccc(Cl)cc23)CC1,–,"inconclusive [inhibitor, single point]"
Cc1nc2sc(C(c3ccccc3)N3CCOCC3)c(O)n2n1 (stereo not given),inactive: -7.28%,–
COc1ccc(N(C(=O)CNC(=O)c2cccs2)C(C(=O)NCC2CCCO2)c2ccccc2)c(OC)c1 (stereo not given),–,"inconclusive [inhibitor, partial curve, poor fit]"
Cc1cccc(N2N=C(C(=O)O)CCC2=O)c1,–,active: 9.28 µM
COc1ccc(CCCc2nnc(SCC(=O)Nc3cc(C)c(C)cc3Br)o2)cc1,–,"inconclusive [inhibitor, single point]"
Cc1cccc(NCc2ccccc2O)n1,–,"inconclusive [inhibitor, partial curve, poor fit]"
CC(C)c1ccc(Nc2nc(CC(=O)O)cs2)cc1,inactive: 273%,–
COc1ccc([C@H]2CC(=O)C=C(c3ccccc3)C2)cc1OC,–,"inconclusive [inhibitor, single point]"
CCOC(=O)[C@H]1[C@H]2COc3ccc(OC)cc3[C@@H]2N2C(=O)c3cc(C)ccc3NC(=O)[C@@]12C,–,"inconclusive [inhibitor, single point]"
CCOC(=O)c1cnc2ccc(OCC)cc2c1N1CCN(c2ccccc2)CC1,–,"inconclusive [inhibitor, full curve, poor fit]"
C[C@@H](C(=O)N1CCN(Cc2ccc3c(c2)OCO3)CC1)n1nnc2ccccc2c1=O,inactive: -6.53%,–
O=C(c1ccco1)N1CCN(S(=O)(=O)c2ccc3c(c2)CCN3C(=O)C2CC2)CC1,–,"inconclusive [inhibitor, single point]"
CCCn1nc2cc(C(=O)NCc3ccccc3OC)ccc2c1OCC,–,"inconclusive [inhibitor, partial curve, poor fit]"
CCCN(CCC)CC(O)Cn1c2ccccc2c2ccccc21 (stereo not given),–,"inconclusive [inhibitor, partial curve]"

Structure (SMILES),"activity change, negative = inhibition",Potency
Cc1ccnc(NC(=O)c2cc([N+](=O)[O-])cc([N+](=O)[O-])c2)c1,–,"inconclusive [inhibitor, full curve, poor fit]"
COc1ccc([C@]23Cc4cc(OC)c(OC)cc4C(O2)C2=C(CC4(CCCCC4)OC2=O)O3)cc1,–,"inconclusive [inhibitor, single point]"
COc1ccc(C(C(=O)NC2CCCC2)N(C(=O)c2ccco2)c2ccc(OC)c(OC)c2)cc1 (stereo not given),–,"inconclusive [inhibitor, single point]"
Cc1ccc2nsnc2c1S(=O)(=O)Nc1cccc2nsnc12,–,"inconclusive [inhibitor, single point]"
O=C(O)c1cccc(-n2cccc2/C=C\[N+](=O)[O-])c1,–,"inconclusive [inhibitor, single point]"
COc1ccc(-n2c(SCc3ccc([N+](=O)[O-])cc3)nnc2-c2ccc(C)cc2)cc1,–,"inconclusive [inhibitor, single point]"
COc1ccc(N=Nc2n(C)c3ccccc3[n+]2C)cc1,–,active: 0.738 µM
CCCCNC(=O)CSc1nc2ccccc2c(=O)n1CC1COc2ccccc2O1 (stereo not given),–,"inconclusive [inhibitor, single point]"
O=C(c1cccc(Cl)c1)N1CCCC(c2ccc(Cl)cc2)=N1,–,"inconclusive [inhibitor, partial curve, poor fit]"
Fc1cccc(CN2CCN3CCCC3C2C2CCCCC2)c1 (stereo not given),–,"inconclusive [inhibitor, partial curve, poor fit]"
CC/C(C)=C1\SC(N2CCN(c3cccc(C(F)(F)F)c3)CC2)=NC1=O,–,"inconclusive [inhibitor, partial curve, poor fit]"
Cc1ccsc1C(=O)Nc1ccc(S(=O)(=O)N2CCOCC2)cc1,inactive: -1.36%,–
Cc1cc(C2=NNC(=NCCc3ccccc3)SC2)c(C)n1-c1c(C)n(C)n(-c2ccccc2)c1=O,–,active: 6.57 µM
Cc1cc(S(=O)(=O)N2CCOCC2)ccc1OCC(=O)Nc1cccc(C(F)(F)F)c1,–,"inconclusive [inhibitor, single point]"
Cc1nc(-c2ccccn2)nc(SCC(=O)c2ccc(F)cc2)c1Cl,–,"inconclusive [inhibitor, single point]"
Cc1cc(C(=O)COC(=O)CC2Sc3ccccc3NC2=O)c(C)n1-c1ccc(Br)cc1 (stereo not given),inactive: -27.2%,–
CC(C)C(NS(=O)(=O)c1c(Cl)cccc1Cl)C(=O)OCC(=O)c1c[nH]c2ccccc12 (stereo not given),–,active: 4.15 µM
COC(=O)c1cn(-c2ccc(Cl)cc2)c(=O)c2ccccc12,–,active: 2.94 µM
Cc1cc(C[n+]2cc(Cl)ccc2N)c2ncccc2c1,–,active: 13.1 µM
C/C=C\C=C/C(=O)Nc1cccc(C2=NOC3(C2)C[C@H](C(N)=O)N(C(=O)c2ccc(OC)cc2)C3)c1 (stereo not given in full),–,"inconclusive [inhibitor, single point]"
COc1ccc(OC)c(NC(=O)CSc2nc3nc(C)cc(C)n3n2)c1,–,"inconclusive [inhibitor, single point]"
COCCNC(=S)N1CCC(c2nc(-c3ccc(N(C)C)cc3)no2)CC1,–,"inconclusive [inhibitor, partial curve, poor fit]"
